Consider 62 sequences from the supplement of paper PMC10681739.

Over roughly 4,000 sequences, “arbitrary fluorescence units” has its median near 830; the highest 2% begin near 6,500. The list lacks most of the strong results.
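Note: Full-length recombinant human RUNX1 bound to double-stranded DNA microarray spots, detected with an Alexa488-labelled secondary antibody after the anti-RUNX1 primary, read as scanned spot fluorescence.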

The target in this assay is RUNX1 (UniProt Q01196). Description: RUNX1 binding intensity (PBM fluorescence), RUNX1 alone (arbitrary fluorescence units); higher = stronger binding. As to conditions: RUNX1 concentration 2 nM; ETS1 concentration 0 nM. As to the method: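 gcPBM on 36-bp genomic-derived probes (partner site mutated) containing one RUNX1 site and no ETS1 site. Recombinant human RUNX1 (2 nM) was incubated alone or with ETS1 (25 nM) and detected by anti-RUNX1 antibody fluorescence. Values are medians over 4 replicate spots (not normalised). The probes sit in constant array flanks that are not printed.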
Sequence of UniProt Q01196 (Q01196 whole entry): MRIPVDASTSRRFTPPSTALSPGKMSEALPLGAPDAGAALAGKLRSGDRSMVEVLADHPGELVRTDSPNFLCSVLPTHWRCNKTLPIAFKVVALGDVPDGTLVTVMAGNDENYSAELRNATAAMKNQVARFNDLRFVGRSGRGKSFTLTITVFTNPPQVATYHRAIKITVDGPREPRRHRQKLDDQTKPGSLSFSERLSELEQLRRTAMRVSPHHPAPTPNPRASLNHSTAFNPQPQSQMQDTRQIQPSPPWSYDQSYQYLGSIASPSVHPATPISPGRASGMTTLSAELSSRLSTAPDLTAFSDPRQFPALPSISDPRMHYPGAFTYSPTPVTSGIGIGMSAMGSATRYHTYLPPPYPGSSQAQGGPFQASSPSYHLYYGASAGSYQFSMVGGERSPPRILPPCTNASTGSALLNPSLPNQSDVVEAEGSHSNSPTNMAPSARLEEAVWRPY
ATCTCAACTAGGACATGTTTTTGTGACCACAAAGGG: the RUNX1 binding intensity worked out at 1070.

The sequence CTGCCAGACCACACAGTTTGCACTCCCGGGGCGGGC had an RUNX1 binding intensity of 996.

In turn, CTATATCACCTCCTTTCTCTGACCGCGCTGACTTCG displayed an RUNX1 binding intensity of 1770.

Consider GACACTGCGGTAGCCTCACTATTGCCTGCTTTAGGA, for which the RUNX1 binding intensity is 1200.

TGGCGCTGCGGGCCGGGCGGGGGCCGCGGAGGCTGC returned an RUNX1 binding intensity of 734.

ACAGCTCACACAGTAAATACAAACCTCAAAAAGCAA: the RUNX1 binding intensity is 970.

CCTGTACGGAGGCTACTCTGGTTTCATGTGGTTTCA came in with an RUNX1 binding intensity of 912.

AGTGACGTTTGCGGCAGTAAGGCTTACGTCGGAAAA yielded an RUNX1 binding intensity of 777.

ACAGAGAAGATTCCTATTGTGGGATTCACCACCACC displayed an RUNX1 binding intensity of 786.

In turn, CTCATCAGTCAGCCGGCTGGACCGCAGGAGCTCTCC displayed an RUNX1 binding intensity of 900.

With TGGTGCCAAAAATCCGCTAGCCACAGAAAAACCGAC, the RUNX1 binding intensity was 814.

In the case of GCGCCCGAAAGTAAGGCTGGGGTAGGTTGTGGTTTC, the RUNX1 binding intensity came to 922.

As for ATACTGCGGCACTGGGTTGGGGTTGCCTGGATGAAC, the RUNX1 binding intensity was found to be 768.

In the case of AAAAAGCCGTATGTGAAGGCTGTGGTTCTCAACCCG, the RUNX1 binding intensity came to 754.

CAGCCGGCACCGCGGACAGCCGCCGCTTCAGGTTTC registered an RUNX1 binding intensity of 751.

As to TGCAGTTGCCCCCGCACAGCGGAGGTGGGTCGCCTC, the RUNX1 binding intensity was 719.

Sequence TGTCTCATTTGCTGTAGGTAACAGGCACCACAATAG registered an RUNX1 binding intensity of 847.

Sequence CAGGCCAAAAAGCCACACCTCAGAGGACGTAGTTCG registered an RUNX1 binding intensity of 764.

On to GCAGGCGTGCGCTCCCGCTCCAACCCGCGCACTTCG, for which the RUNX1 binding intensity came out at 883.

As for TTACGACACTCCCGGCGACGCCCCGCAGCCTTCACC, the RUNX1 binding intensity was 941.

Turning to AGTCTGGCTCTGACCACAAGGCAGGCAATAGCTCAT, the RUNX1 binding intensity is 1870.

TTTACTGAGAGGAGGTGGTTCTTGTGGGTGAAGGTC registered an RUNX1 binding intensity of 872.

On to TTACTGCCTGAACTTGGGACCTTTGTAACCACGTCT, for which the RUNX1 binding intensity came to 906.

Take TAAGTGCACGAAACGGCTGTGTGGGTGTCAGTGATT: the RUNX1 binding intensity was 712.

For the sequence TAAATGTCTCCTAAAAGCTCTTTCATAAACCACAGT, the RUNX1 binding intensity was found to be 884.

The sequence AGTGGATTAGTGGTTGTTGCCAGAGGAGGTGAGTTG yielded an RUNX1 binding intensity of 770.

ACTACCTGCGGGTGGCCACCAGCGGCGGCAGTCGGG: the RUNX1 binding intensity worked out at 822.

As for GAAGCCCAACAGCATGCCGAGTAACCACCCACTGAA, the RUNX1 binding intensity was 878.

On to GCCGATGAGGAGGTGAGGGCCAACCACACTGCTCAG, for which the RUNX1 binding intensity worked out at 870.

CTGAGGCAATTGGCTCCACGATAAAGTGGTTTGGCC showed an RUNX1 binding intensity of 751.

Regarding GGAGCCTGGCTGTGGGTGAGTGCTTGCTGAAGGGGT, the RUNX1 binding intensity turned out to be 641.

The sequence GCTGACCACATTAAACCAGCGCCCACCTCCTCTCAC came in with an RUNX1 binding intensity of 1810.

In turn, TTGACCGCAGGAACTCAACCTCCCCTGGAACTCAAC yielded an RUNX1 binding intensity of 2520.

Sequence AGCACCAGTGTGGTCTCTGCTTACGGTCCTTATGGT gave an RUNX1 binding intensity of 882.

Take TTTTCCGACGTAAGCCTTACTGCCGCAAACGTCACT: the RUNX1 binding intensity was 954.

As for TCTTCCTCCTCGCGGTCGCGGCCGTACGGAGGGTGG, the RUNX1 binding intensity came to 803.

Turning to AGAGGCAGCTTACGGAGACTGCTCTGTGGCCAGTTT, the RUNX1 binding intensity worked out at 711.

Take GAGGCAGGCGCATGTCAGTGTGGTTAGAGCACAGTG: the RUNX1 binding intensity was determined as 812.

With GTTTGGTGTGGTTGCAGTACACGATGCATAGTGAAG, the RUNX1 binding intensity stood at 870.

Take AACAGTACTTTCGGGGCAAGTGAGCGCCCACAAGGC: the RUNX1 binding intensity stood at 783.

For GGCTCCCTGCCCAACTACCAAGAAAAAGCCACAAAG, the RUNX1 binding intensity was 1020.

GCGCAACGAACCGCAGGTACCGTAAGAGCACACTTC gave an RUNX1 binding intensity of 1020.

Turning to CTTCAGCCGCCACCTCCCCGCCCCCGCAGCCCGACA, the RUNX1 binding intensity came to 1120.

The sequence AGCCCACACGGACCACAGCTCCAGGGAGCCGAGCAA displayed an RUNX1 binding intensity of 881.

In turn, GGGCATGAACGAAGAGGGCTCCTCCCCACAAGCTCT came in with an RUNX1 binding intensity of 788.

As for ATAAACATGAAGCTGAGTATGTGACCACAGACATTC, the RUNX1 binding intensity stood at 825.

Sequence CTCCGTTAGGAGATACTATGCAACCACGTCCAGCAT showed an RUNX1 binding intensity of 716.

Sequence GACCTGACAACATGCTGGCGCAGTGGGTTGGCCCTG registered an RUNX1 binding intensity of 755.

TTCTTCCCCCTTCAGGTCGCTGAGTGGTTGAGGCCG came in with an RUNX1 binding intensity of 912.

TCGCAAACCTCAATGTATTTCCATCACAGAAAGAGA returned an RUNX1 binding intensity of 1240.

Consider CTTTCGCCCTGCCGCGTGCGCTTTGACCGCCCACCC, for which the RUNX1 binding intensity stood at 1040.

Regarding TTCAGCCTCCCGCCGCAAGCTCCCTTCGGCCGCTCC, the RUNX1 binding intensity came to 1030.

Sequence GCCCAGTTCTCGCCTCCGGTCTGCGGCGCGCTCGGG showed an RUNX1 binding intensity of 844.

Regarding TTGGGGCCCCACAGAAAGTCAGTGGAACGTGAAATG, the RUNX1 binding intensity amounted to 756.

The sequence TGAAAGCCAGGCAAGTGGCTCCCACAATAAGCCAAG yielded an RUNX1 binding intensity of 689.

CCCGGTGCATCGGATCCGACCACACCCTGGGTGGGC had an RUNX1 binding intensity of 701.

Take ACTCGCTCCGGCCGCAGCCCCCTCGGAGGCTGCTAG: the RUNX1 binding intensity was found to be 822.

Take CATGTGCTTACGGCTTGATCTGTGGTTATTCTGGTT: the RUNX1 binding intensity came to 1300.

Sequence CAAACCACCTAACAGTGCACAGACAGCAGCCTGAGC showed an RUNX1 binding intensity of 766.

On to TGCCGTATGTGGGTTGAGGGCATGCTGCTTCGCCAT, for which the RUNX1 binding intensity was found to be 758.

In turn, TAAAACCACCTCAGTACAAATGAACGTCCTTTTCAA returned an RUNX1 binding intensity of 844.

AGGCTTACGGCCACGCCCCCTTCCCGCGGTTGCTAG came in with an RUNX1 binding intensity of 757.
